Tested on: Trypsin
Test: trypsin in 100mM Tris pH 7.8
Conditions: 37C, up to 25h

Sequence | cleaved bond
SEMRLEKDRFSVNL | Lys7-Asp8, major
SEMRLEKDRFSVNL (D-isoAsp-8) | Arg4-L5, major
